The record followed here is article PMC2646141.

The chains behind the UniProt entries cited, without tags or fusion partners. Where a name states a change or a piece, a line headed by the entry shows the natural chain unless it says otherwise.
UniProt Q9HC16: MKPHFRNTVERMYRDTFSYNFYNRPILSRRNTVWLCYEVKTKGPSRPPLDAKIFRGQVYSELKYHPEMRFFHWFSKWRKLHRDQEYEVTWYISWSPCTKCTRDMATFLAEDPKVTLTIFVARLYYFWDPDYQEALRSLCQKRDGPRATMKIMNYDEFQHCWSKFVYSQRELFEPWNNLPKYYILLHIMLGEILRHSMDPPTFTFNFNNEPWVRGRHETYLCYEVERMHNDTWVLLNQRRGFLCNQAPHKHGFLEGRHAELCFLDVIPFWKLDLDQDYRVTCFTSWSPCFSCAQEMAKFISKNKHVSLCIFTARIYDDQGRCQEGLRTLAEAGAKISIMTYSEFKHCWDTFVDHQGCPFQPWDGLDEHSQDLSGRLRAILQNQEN

Assay [1] concerns the target A3G R24A (human) (UniProt Q9HC16). The assay is described as follows: cross-linking; cleared lysate of transfected 293T cells treated with BM(PEO)3 (cysteine-reactive, 18 Å linker), 20°C, 1 h, quenched with DTT; SDS-PAGE and immunoblot for A3G; ~80 kD species; no RNase A, or RNase A after the crosslinking. (In general: Immunoblotting shows a protein as a band on a membrane.)

Assay [2] concerns the target HA-tagged wild type A3G (human) (UniProt Q9HC16). Put plainly: co-IP; 293T cells co-transfected with pA3G-HA and a second A3G plasmid; cleared lysate (0.5% Triton X-100, 287 mM NaCl, pH 7.2); 3F10 anti-HA antibody and protein G- or A-agarose, 2 h at 4°C; aliquot without RNase A; immunoblot. In Figure 3A RNase A treatment substantially inhibited ….
Assay [3] concerns the target A3G R24A+R136A (human) (UniProt Q9HC16). The assay is described as follows: cross-linking; cleared lysate of transfected 293T cells treated with BM(PEO)3 (cysteine-reactive, 18 Å linker), 20°C, 1 h, quenched with DTT; SDS-PAGE and immunoblot for A3G; ~80 kD species; no RNase A, or RNase A after the crosslinking.
The target of assay [4] is A3G R30A (human) (UniProt Q9HC16). Described as above.
Assay [5] has as its target A3G R30A+R136A (human) (UniProt Q9HC16). The description is as above.
For assay [6], the target named is A3G W127Y (human) (UniProt Q9HC16). The description is as above.
The target in assay [7] is A3G Y124F (human) (UniProt Q9HC16). The assay is described as above.
The target of assay [8] is wild type APOBEC3G (A3G) bait (human) (UniProt Q9HC16). Put plainly: two-hybrid; yeast Y190; wild type A3G in the bait plasmid pGBKT7, wild type or mutant A3G in the prey plasmid pHB18; beta-galactosidase activity (chlorophenol red-beta-D-galactopyranoside), OD540, normalised to Tsg101 bait/Vps28 prey set at 4.0.
For assay [9], the target named is HA-tagged wild type A3G (human) (UniProt Q9HC16). Put plainly: condition: only after treatment of the immunoprecipitate with RNase A; co-IP; as a2, but the bead-bound immunoprecipitate was treated with bovine pancreatic RNase A (30 min, room temperature) before the last washes.
Assay [10] has as its target untagged A3G W127A (human) (UniProt Q9HC16). The assay is described as follows: cross-linking; cleared lysate of transfected 293T cells treated with BM(PEO)3 (cysteine-reactive, 18 Å linker), 20°C, 1 h, quenched with DTT; SDS-PAGE and immunoblot for A3G; ~80 kD species; no RNase A, or RNase A after the crosslinking.
Assay [11] concerns the target untagged A3G Y124A (human) (UniProt Q9HC16). The assay is described as above.
In assay [12] the target is untagged A3G Y315A (human) (UniProt Q9HC16). The description is as above.
Assay [13] addresses untagged wild type APOBEC3G (A3G) (human) (UniProt Q9HC16). The assay is described as follows: condition: only RNase A treatment prior to crosslinking; cross-linking; as a4, but RNase A (10 U) added to the lysate prior to BM(PEO)3.

Results are given in words; binding and its absence hold for the method and conditions named. For some assays here: Binding seen in cells or lysates may run through a third protein. Some entries that bind do so weakly or less than the wild type.

Regarding A3G R24A (from UniProt Q9HC16 1-384), the binding result in assay [1] and in assay [2] was “binds” each time.
Regarding “A3G R24A+R136A (from UniProt Q9HC16 1-384)”, the binding entry in assay [3] and in [2] was “binds weakly” each time.
Take A3G R30A (from UniProt Q9HC16 1-384): the binding entry in assay [4] and in assay [2] was “binds” in each case.
Turning to “A3G R30A+R136A (from UniProt Q9HC16 1-384)”, the binding result in assay [5] and in [2] was “binds weakly” each time.
For A3G W127Y (from UniProt Q9HC16 1-384), the binding result in [6] is “binds”.
Turning to A3G Y124F (from UniProt Q9HC16 1-384), in [7], the binding result is on record as “binds”.
With “A3G Y124L prey (from UniProt Q9HC16 1-384)”, the binding entry in assay [8] was “no binding”.
On the same count and under the same terms, to “A3G Y315A prey (from UniProt Q9HC16 1-384)” belongs “binds”; to “A3G Y315F prey (from UniProt Q9HC16 1-384)”, “binds”.
On the same count and under the same terms, to “A3G Y315L prey (from UniProt Q9HC16 1-384)” belongs “binds”.
As to “myc-tagged A3G (from UniProt Q9HC16 1-384)”, the binding entry in [9] is “no binding”.
As for “untagged A3G W127A (from UniProt Q9HC16 1-384)”, in assay [10], the binding result was “binds weakly”.
As for “untagged A3G Y124A (from UniProt Q9HC16 1-384)”, in assay [11], the binding result was “binds weakly”.
Take “untagged A3G Y315A (from UniProt Q9HC16 1-384)”: the binding entry in assay [12] and in [2] was “binds” throughout.
Consider “untagged wild type APOBEC3G (A3G) (from UniProt Q9HC16 1-384)”, for which, in assay [13], the binding entry is given as “no binding”.
